Results are given in words; binding and its absence hold for the method and conditions named. For part of these data: Binding seen in cells or lysates may run through a third protein. Some entries that bind do so weakly or less than the wild type. For part of these data: Sequences can lack the tags named with a protein.
Assays:
[1] = target: T1, Alveolar Soft Part Sarcoma Locus protein (ASPL; human, endogenous in primary adipocytes) (human (endogenous in primary adipocytes)) (UniProt Q9BZE9); test: proximity ligation; in situ PLA (Duolink) on fixed, permeabilised human primary adipocytes; primary antibodies against GLUT4 (rabbit) and ASPL (mouse); confocal microscopy
T1 sequence: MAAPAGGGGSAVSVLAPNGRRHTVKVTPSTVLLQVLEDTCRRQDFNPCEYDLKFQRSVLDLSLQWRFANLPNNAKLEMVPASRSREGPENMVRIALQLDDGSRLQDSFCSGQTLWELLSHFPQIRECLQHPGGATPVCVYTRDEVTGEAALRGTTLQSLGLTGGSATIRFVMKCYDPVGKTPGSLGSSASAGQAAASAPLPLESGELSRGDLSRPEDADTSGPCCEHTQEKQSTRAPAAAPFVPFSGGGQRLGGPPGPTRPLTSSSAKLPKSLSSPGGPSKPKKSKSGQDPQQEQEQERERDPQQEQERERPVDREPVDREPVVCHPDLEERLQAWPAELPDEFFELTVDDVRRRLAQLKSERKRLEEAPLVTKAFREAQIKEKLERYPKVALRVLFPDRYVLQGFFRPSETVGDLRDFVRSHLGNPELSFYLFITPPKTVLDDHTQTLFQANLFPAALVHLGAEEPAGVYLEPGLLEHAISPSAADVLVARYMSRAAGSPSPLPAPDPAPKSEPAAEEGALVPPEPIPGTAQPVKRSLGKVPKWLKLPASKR

[2] = target: T2, GST-tagged human full-length ASPL with C-terminal His tag (human) (UniProt Q9BZE9); test: pull-down; pure GST-ASPL immobilised on glutathione-Sepharose 4B beads, incubated with GLUT4 yeast lysate 1 h at 4 °C, washed with PBS, eluted with 30 mM reduced glutathione; western blot with GST and GLUT4 antibodies; beads alone as control; only the target purified
T2 sequence: T1 sequence

[3] = target: T3, C-terminal domain of ASPL (ASPL-C, residues 313-553) (human) (UniProt Q9BZE9); test: far-Western, overlay or dot blot; far dot western blot: 100 pmol ASPL-C spotted on nitrocellulose, blocked, exposed to GLUT4 yeast lysate 40 min at room temperature, washed with PBS with 0.1% DM, detected with GLUT4 antibody; only the target purified
T3 sequence: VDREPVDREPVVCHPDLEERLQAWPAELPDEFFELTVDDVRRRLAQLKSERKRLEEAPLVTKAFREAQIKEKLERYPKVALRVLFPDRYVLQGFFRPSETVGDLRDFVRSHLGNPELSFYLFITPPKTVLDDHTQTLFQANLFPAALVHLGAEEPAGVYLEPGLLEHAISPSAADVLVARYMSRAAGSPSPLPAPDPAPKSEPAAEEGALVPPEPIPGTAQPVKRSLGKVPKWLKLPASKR

[4] = target: T4, Thioredoxin fused C-terminally with human GLUT4 intracellular helical bundle (residues 225-271, I232C/K264C) (human) (UniProt P14672); test: pull-down; 10 μg Trx-ICH_(GLUT4) or Trx immobilised on Ni-NTA agarose, incubated with ASPL-C overnight at 4 °C, washed with PBS, eluted with 300 mM imidazole; western blot with anti-His and anti-ASPL antibodies; both purified
T4 sequence: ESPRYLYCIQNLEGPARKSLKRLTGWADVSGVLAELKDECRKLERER

[5] = target: His-tagged thioredoxin (Trx) [thioredoxin: P0AA25]; test: as above
[6] = target: T3, C-terminal domain of ASPL (ASPL-C, residues 313-553) (human); test: cross-linking; 5 μg Trx-ICH_(GLUT4) incubated with ASPL-C 15 min at 37 °C, cross-linked with DSS-H12/D12 (0 to 2 mM) 30 min at 37 °C; digestion and LC-MS/MS (MeroX, pLink 2); both purified

B1: Glucose transporter GLUT4 (human, endogenous in primary adipocytes) (protein, UniProt P14672 1-509)
chain: MPSGFQQIGSEDGEPPQQRVTGTLVLAVFSAVLGSLQFGYNIGVINAPQKVIEQSYNETWLGRQGPEGPSSIPPGTLTTLWALSVAIFSVGGMISSFLIGIISQWLGRKRAMLVNNVLAVLGGSLMGLANAAASYEMLILGRFLIGAYSGLTSGLVPMYVGEIAPTHLRGALGTLNQLAIVIGILIAQVLGLESLLGTASLWPLLLGLTVLPALLQLVLLPFCPESPRYLYIIQNLEGPARKSLKRLTGWADVSGVLAELKDEKRKLERERPLSLLQLLGSRTHRQPLIIAVVLQLSQQLSGINAVFYYSTSIFETAGVGQPAYATIGAGVVNTVFTLVSVLLVERAGRRTLHLLGLAGMCGCAILMTVALLLLERVPAMSYVSIVAIFGFVAFFEIGPGPIPWFIVAELFSQGPRPAAMAVAGFSNWTSNFIIGMGFQYVAEAMGPYVFLLFAVLLLGFFIFTFLRVPETRGRTFDQISAAFHRTPSLLEQEVKPSTELEYLGPDEND
B1 was tested, and the binding [1] was “binds”.

B2: Rat GLUT4 with N-terminal poly-histidine tag (protein, UniProt P19357 1-509)
chain: MPSGFQQIGSEDGEPPQQRVTGTLVLAVFSAVLGSLQFGYNIGVINAPQKVIEQSYNATWLGRQGPGGPDSIPQGTLTTLWALSVAIFSVGGMISSFLIGIISQWLGRKRAMLANNVLAVLGGALMGLANAAASYEILILGRFLIGAYSGLTSGLVPMYVGEIAPTHLRGALGTLNQLAIVIGILVAQVLGLESMLGTATLWPLLLAITVLPALLQLLLLPFCPESPRYLYIIRNLEGPARKSLKRLTGWADVSDALAELKDEKRKLERERPLSLLQLLGSRTHRQPLIIAVVLQLSQQLSGINAVFYYSTSIFELAGVEQPAYATIGAGVVNTVFTLVSVLLVERAGRRTLHLLGLAGMCGCAILMTVALLLLERVPSMSYVSIVAIFGFVAFFEIGPGPIPWFIVAELFSQGPRPAAMAVAGFSNWTCNFIVGMGFQYVADAMGPYVFLLFAVLLLGFFIFTFLRVPETRGRTFDQISATFRRTPSLLEQEVKPSTELEYLGPDEND
With B2 the binding [2] was “binds” and the binding [3] was “binds”.

B3: C-terminal domain of ASPL (ASPL-C, residues 313-553) (domain or fragment, UniProt Q9BZE9 313-553)
chain: T3 sequence
For B3, the binding [4] was “binds” and the binding [5] was “no binding”.

In the case of ESPRYLYCIQNLEGPARKSLKRLTGWADVSGVLAELKDECRKLERER (domain or fragment, UniProt P14672 225-271), the binding [6] is reported as “binds”.

From PMC10626271
